Reference: PubChem BioAssay AID488969 (Vanderbilt High Throughput Screening Facility, 2010)
In all, about 110,000 compounds were measured (“z-score”: median about -0.1, highest 2% from about 2 on). This is one part of the list. The source made the active and inactive calls.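 How the source made its calls: active means z-score in the third read window above 3 or below -3; inactive means the rest.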

target: Metabotropic glutamate receptor 8 (Rattus norvegicus) (UniProt P70579); experiment: mGluR8 Gi/Go-coupled signaling modulation – cell-based, rat, thallium flux, HTS, primary screen (AID 488969); conditions: HEK293 rat mGluR8, GIRK (G protein-gated inwardly rectifying potassium channel) thallium flux, FluoZin2; at 10 µM; stronger effect = higher value; submaximal glutamate (EC20) added with thallium
UniProt P70579, sequence (P70579 whole entry, looked up): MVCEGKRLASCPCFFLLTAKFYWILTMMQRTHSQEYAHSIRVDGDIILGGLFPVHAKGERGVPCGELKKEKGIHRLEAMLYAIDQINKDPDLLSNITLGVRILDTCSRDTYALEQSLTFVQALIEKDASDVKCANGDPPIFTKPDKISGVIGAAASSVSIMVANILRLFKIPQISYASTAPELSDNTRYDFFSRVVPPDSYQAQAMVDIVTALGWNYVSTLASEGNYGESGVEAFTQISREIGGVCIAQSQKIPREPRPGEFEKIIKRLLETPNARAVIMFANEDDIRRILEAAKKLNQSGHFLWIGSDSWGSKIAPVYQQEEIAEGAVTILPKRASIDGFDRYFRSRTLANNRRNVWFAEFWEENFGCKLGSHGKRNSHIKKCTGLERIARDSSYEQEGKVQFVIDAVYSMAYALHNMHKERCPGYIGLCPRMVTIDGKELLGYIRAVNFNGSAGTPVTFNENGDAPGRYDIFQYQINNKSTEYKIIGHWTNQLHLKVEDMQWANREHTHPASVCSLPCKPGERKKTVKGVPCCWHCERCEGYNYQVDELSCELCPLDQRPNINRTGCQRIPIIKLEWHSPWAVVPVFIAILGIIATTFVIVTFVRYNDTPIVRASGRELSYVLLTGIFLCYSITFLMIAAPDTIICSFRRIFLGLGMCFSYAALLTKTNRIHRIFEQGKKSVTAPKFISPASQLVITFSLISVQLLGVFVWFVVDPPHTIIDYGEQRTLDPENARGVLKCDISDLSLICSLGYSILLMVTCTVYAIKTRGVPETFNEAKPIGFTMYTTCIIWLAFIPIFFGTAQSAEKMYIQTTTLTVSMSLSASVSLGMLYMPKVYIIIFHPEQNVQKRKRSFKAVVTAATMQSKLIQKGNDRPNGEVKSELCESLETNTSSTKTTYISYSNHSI

How did the z-score turn out when `Cc1cccc(Cn2c(C(=O)OC(C)C)cc3c2ccn3C)c1` was run?
The z-score was -0.191.

How did the z-score turn out when `O=C(CSc1nnc2c(n1)[nH]c1ccccc12)Nc1ccc2c(c1)OCO2` was run?
The z-score was -0.211.

`COc1ccc(N2CCN(c3nc(NC(C)(C)C)nc(N4CCCCC4)n3)CC2)cc1` was tested. Which z-score did it give?
Its z-score is -0.123.

How did the z-score turn out when `CCCOc1ccc(Cn2c(C)nc([N+](=O)[O-])c2SCC(O)COC)cc1[N+](=O)[O-]` (stereo unspecified) was run?
The z-score was -0.12.

`O=c1c(-c2nc3ccccc3s2)cccn1Cc1ccc(Cl)cc1` was tested. Which z-score did it give?
The z-score was -0.0537.

`CC(C)N1C(=O)CCC1C(=O)NC1CCCC1` (stereo unspecified) was tested. Which z-score did it give?
The z-score was 0.643.

Which z-score does the source give for `COc1ccc(CC(=O)N2CC(C)CC(C)C2)cc1` (stereo unspecified) here?
The z-score was -0.803.

How did the z-score turn out when `CCn1c(C)c(C(C)=O)c(N2CCN(C(=O)c3ccco3)CC2)nc1=S` was run?
The z-score was 0.278.

How did the z-score turn out when `O=C(CSc1nc(-c2ccc(F)cc2)cs1)Nc1ccccn1` was run?
Its z-score is -0.248.

For `Cc1cccc(NC(=O)c2cnc3scc(C)n3c2=O)c1`, which z-score is on record?
The z-score was -0.165.

`CCOc1ccccc1NC=C1C(=O)OC2(CCCCC2)OC1=O` was tested. Which z-score did it give?
The z-score was 0.615.

For `CCCCCOC(=O)c1[nH]c2c(c1C)C(=O)C(C(=O)OC)C(C)C2` (stereo unspecified), which z-score is on record?
Its z-score is -0.309.

With `Cc1ccc(CNC(=O)c2sc3nc4c(c(C(F)(F)F)c3c2N)CCC4)cc1` as the compound, how does the z-score read?
The z-score was -1.59.

For `CCN(CC)S(=O)(=O)c1ccc(C)c(NC(=O)COC(=O)c2ccc(C)c(S(=O)(=O)N3CCOCC3)c2)c1`, which z-score is on record?
Its z-score is -0.0709.

`N#Cc1c(C(F)(F)F)cc(-c2cccc(Cl)c2)[nH]c1=O` was tested. Which z-score did it give?
The z-score was -1.11.

How did the z-score turn out when `COc1ccc(Cn2c(=O)[nH]c3cc(C(=O)NCCCN4CCCC4)ccc3c2=O)cc1` was run?
The z-score was -0.345.

For `O=C1COc2ccc(C(=O)c3ccccc3C(=O)NCc3ccco3)cc2N1`, which z-score is on record?
The z-score was 0.0372.

For `COc1ccc2c(c1OC)C(=O)OC2c1c(O)nc(SC)n(-c2ccccc2)c1=O` (stereo unspecified), which z-score is on record?
The z-score was -0.0012.

`N/C(Cc1ccc(Cl)cc1Cl)=N\OC(=O)Cc1ccc(Cl)cc1` was tested. Which z-score did it give?
Its z-score is -0.156.

With `COc1ccc2nc(Nc3nc(CSc4nc5ccccc5[nH]4)cc(=O)[nH]3)nc(C)c2c1` as the compound, how does the z-score read?
The z-score was 0.0342.

How did the z-score turn out when `COc1ccccc1N1CCN(C(=O)CSc2ccccc2)CC1` was run?
The z-score was -0.145.

`COC(=O)CN(c1ccc(F)cc1)S(=O)(=O)c1ccccc1` was tested. Which z-score did it give?
Its z-score is 0.0769.

`O=C(COC(=O)c1cc(-c2cccs2)nn1-c1ccccc1)Nc1cccc([N+](=O)[O-])c1` was tested. Which z-score did it give?
The z-score was -0.285.

How did the z-score turn out when `CCOC(=O)Nc1cc2c(cc1C(C)=O)OCO2` was run?
Its z-score is 0.657.

Which z-score does the source give for `CC(=O)c1cc2c(cc1NC(=O)CN1CCN(C(=O)c3ccco3)CC1)OCO2` here?
The z-score was 0.548.

How did the z-score turn out when `CCCC(=O)NC(=S)Nc1ccccc1OC` was run?
Its z-score is 0.0794.

`COc1nc(SC)nc(Cl)c1Cc1ccc(OC(C)C)cc1` was tested. Which z-score did it give?
The z-score was 0.013.

Which z-score does the source give for `COc1ccc(CN2CCNC(=O)C2CC(=O)O)cc1OC` (stereo unspecified) here?
The z-score was active: 3.61.

For `CCCCOC(=O)Nc1ccc2c(C)cc(=O)oc2c1`, which z-score is on record?
Its z-score is -0.24.

Which z-score does the source give for `Cc1ccc(C(C(=O)NC(C)(C)C)N(C(=O)c2csnn2)c2cccc(F)c2)o1` (stereo unspecified) here?
Its z-score is 0.169.

With `COc1ccc(NC(=O)C2CCN(c3nc(C)cc(C)n3)CC2)cc1` as the compound, how does the z-score read?
The z-score was -0.302.

For `Cc1cc(N2CCC(C(=O)Nc3ccc(F)cc3)CC2)nc(-c2ccccc2)n1`, which z-score is on record?
Its z-score is -1.05.

For `COc1ccc2c(c1)CCc1c(C(=O)N3CCOCC3)noc1-2`, which z-score is on record?
The z-score was 0.766.

With `CC1(C)N=C(N)N=C(N)N1c1ccc(F)cc1F` as the compound, how does the z-score read?
Its z-score is -0.421.

With `CC(C)(C)c1[nH]nc2c1C(C1C=CCCC1)C(C#N)=C(N)O2` (stereo unspecified) as the compound, how does the z-score read?
Its z-score is 0.102.

Which z-score does the source give for `CCOC(=O)C1CCCN(C(=O)c2cccs2)C1` (stereo unspecified) here?
The z-score was -0.161.

For `COC(=O)Cn1c2ccc(C)cc2c2nc(C)sc21`, which z-score is on record?
The z-score was 0.127.

`CCOC(=O)c1cn(-c2ccccc2)nc1-c1ccncc1` was tested. Which z-score did it give?
The z-score was 0.74.

For `CCCN1C2=NS(=O)(=O)CCN2c2ccccc21`, which z-score is on record?
The z-score was 0.249.

For `COc1ccc(OCCSc2nnc(CC(=O)Nc3cccc(Cl)c3Cl)n2C)cc1`, which z-score is on record?
The z-score was -1.01.

Which z-score does the source give for `Cc1cccc(NC(=O)c2ccc(COc3ccc(Cl)cc3Cl)o2)n1` here?
Its z-score is -0.165.

With `N#C/C(=C\c1ccc(-c2cccc(Cl)c2)o1)C(=O)Nc1cccc2cccnc12` as the compound, how does the z-score read?
The z-score was -0.255.

Which z-score does the source give for `CCCCOc1ccc(/C=N/NC(=S)Nc2cc(C)ccc2C)cc1` here?
The z-score was 1.19.

How did the z-score turn out when `Cc1cccc(S(=O)(=O)N2CN(Cc3ccco3)c3nc4ccccc4nc32)c1` was run?
The z-score was -0.177.

`CC(=O)/C(=C/Nc1ccc(Oc2ccccc2)cc1)c1ccccc1` was tested. Which z-score did it give?
Its z-score is -2.35.

For `COc1ccc(C2CC(c3ccc(Cl)cc3Cl)n3nc(N)nc3N2)cc1` (stereo unspecified), which z-score is on record?
The z-score was 1.76.

How did the z-score turn out when `Cc1cc(/C=C(\C#N)c2nc3ccccc3[nH]2)c(C)n1C` was run?
The z-score was -0.371.

`Cc1ccc(-c2noc(CN(C(=O)Cc3ccccc3)C(C)C)n2)cc1` was tested. Which z-score did it give?
Its z-score is 0.0197.

Which z-score does the source give for `c1ccc2sc(SCc3ccc(-c4nnco4)cc3)nc2c1` here?
The z-score was -0.189.

Which z-score does the source give for `COc1cc(OC)c(-c2nc3cnccc3n2C)cc1OC` here?
Its z-score is 0.0988.

For `COc1cc(/C=C(/C#N)c2ccc(F)cc2)ccc1OCc1ccc(C(=O)O)o1`, which z-score is on record?
Its z-score is active: -4.8.

How did the z-score turn out when `Cc1cc(C)cc(N(C(=O)C2CCCC2)C2C=CS(=O)(=O)C2)c1` (stereo unspecified) was run?
Its z-score is 0.0646.

Which z-score does the source give for `O=C(Cn1ncc2c(=O)oc3ccccc3c21)NCCc1ccsc1` here?
Its z-score is -0.157.

Which z-score does the source give for `CCOC(=O)c1ccc2nc(C)c(CCC(C)=O)c(Cl)c2c1` here?
Its z-score is -0.287.

For `COC(=O)CN(Cc1ccco1)S(=O)(=O)c1ccccc1`, which z-score is on record?
The z-score was -0.329.

For `Cc1cccc(NC(=O)CC2S/C(=N/c3nccs3)N(C)C2=O)c1` (stereo unspecified), which z-score is on record?
Its z-score is -0.532.

`Cc1ccc(S(=O)(=O)N2CCCC2C(=O)NCCc2nc3ccccc3[nH]2)cc1` (stereo unspecified) was tested. Which z-score did it give?
Its z-score is 1.06.

Which z-score does the source give for `O=C(CNC(=O)C1CCCCC1)Nc1ccc(Cl)cc1` here?
Its z-score is -0.203.

With `C/C(Cl)=C/Cn1c(NCCCn2ccnc2)nc2c1c(=O)[nH]c(=O)n2C` as the compound, how does the z-score read?
The z-score was 0.264.

Which z-score does the source give for `CC1CCN(S(=O)(=O)c2cnc(Cl)c(Br)c2)CC1` here?
Its z-score is -0.179.

For `O=C1NC2(CCCCC2)C(=O)N1c1ccccc1`, which z-score is on record?
Its z-score is -0.123.

`O=C(COC(=O)c1cnccn1)NCCc1ccccc1` was tested. Which z-score did it give?
Its z-score is 0.028.

Which z-score does the source give for `COc1cccc(C(C(=O)NC2CCCCC2)N(C(=O)c2cccs2)c2ccc3c(c2)OCO3)c1` (stereo unspecified) here?
Its z-score is -0.354.

`COc1ccccc1C(=O)O/N=C(/C)c1ccc(N2C(=O)C3CCCCC3C2=O)cc1` (stereo unspecified) was tested. Which z-score did it give?
Its z-score is -0.564.

How did the z-score turn out when `COC(=O)NNC(=O)CCCOc1ccc(Cl)cc1Cl` was run?
The z-score was -0.164.

Which z-score does the source give for `O=C(NCCSc1ccccc1)c1ccccc1Cl` here?
The z-score was -0.112.

With `Cc1ccc(-c2nc(C)sc2CC(=O)NCc2ccco2)cc1` as the compound, how does the z-score read?
Its z-score is 0.0357.

How did the z-score turn out when `Cc1ccc(C(=O)COC(=O)CNC(=O)c2ccco2)cc1` was run?
The z-score was -0.0681.

For `O=c1oc2ccc3ccccc3c2cc1-c1nc2ccccc2o1`, which z-score is on record?
The z-score was -0.182.

Which z-score does the source give for `Cc1ccc(S(=O)(=O)NC(=O)Nc2nnc(C3CC3)s2)cc1` here?
Its z-score is -0.0905.

With `CN(C)Cc1ccccc1C1(O)c2ccccc2CSc2ccccc21` (stereo unspecified) as the compound, how does the z-score read?
The z-score was -0.164.
